Source: the supplement of paper PMC4604168 (melanoma cell lines)
The list shows a part of the results. Many values rest on one well or one pass, so single values are uncertain.

Tested on: A101D
Experiment: cell count relative to DMSO control; melanoma cells; higher = more viable cells
Details: library dose: standard library concentration; 72 h
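Further: cells treated in 1,536-well plates, then fixed and DAPI-stained, with nuclei counted from automated high-throughput microscope images.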

Compound | cell count [%]
Cn1cncc1[C@@](N)(c1ccc(Cl)cc1)c1ccc2c(c1)c(-c1cccc(Cl)c1)cc(=O)n2C [tipifarnib] + C/C(O)=C(\C#N)C(=O)Nc1cc(Br)ccc1Br [LFM-A13] (first compound 0.05 µM, partner dose 10 µM) | 85
Nc1nc(F)nc2c1ncn2[C@@H]1O[C@H](CO)[C@@H](O)[C@@H]1O [fludarabine] + C[As](C)SC[C@H](NC(=O)CC[C@H](N)C(=O)O)C(=O)NCC(=O)O [Darinaparsin] (first compound 1 µM, partner dose 2 µM) | 92.7
OCc1c[nH]c2ccccc12 [Indole-3-carbinol] + C/C(O)=C(\C#N)C(=O)Nc1cc(Br)ccc1Br [LFM-A13] (first compound 4 µM, partner dose 10 µM) | 86.2
Cc1cc(N2CCOCC2)cc2[nH]c(-c3c(NC[C@@H](O)c4cccc(Cl)c4)cc[nH]c3=O)nc12 + C/C(O)=C(\C#N)C(=O)Nc1cc(Br)ccc1Br [LFM-A13] (first compound 1 µM, partner dose 10 µM) | 109
CS(=O)(=O)c1ccc(C(=O)Nc2ccc(Cl)c(-c3ccccn3)c2)c(Cl)c1 [vismodegib] + Cc1cc(SCc2sc(-c3ccc(C(F)(F)F)c(F)c3)nc2C)ccc1OCC(=O)O [GW0742] (first compound 5 µM, partner dose 10 µM) | 90.4
Cn1sc(=O)n(Cc2ccccc2)c1=O + C/C(O)=C(\C#N)C(=O)Nc1cc(Br)ccc1Br [LFM-A13] (first compound 2 µM, partner dose 10 µM) | 112
Cc1cc(Nc2cc(N3CCN(C)CC3)nc(/C=C/c3ccccc3)n2)n[nH]1 + C[As](C)SC[C@H](NC(=O)CC[C@H](N)C(=O)O)C(=O)NCC(=O)O [Darinaparsin] (first compound 0.2 µM, partner dose 2 µM) | 79.2
CO[C@@H]1[C@H](N(C)C(=O)c2ccccc2)C[C@H]2O[C@]1(C)n1c3ccccc3c3c4c(c5c6ccccc6n2c5c31)C(=O)NC4 [Midostaurin] + O=C(Oc1ccc([N+](=O)[O-])cc1)N1CCC(C(O)(c2ccc3c(c2)OCO3)c2ccc3c(c2)OCO3)CC1 [JZL184] (first compound 0.4 µM, partner dose 5 µM) | 67.4
O=C(Nc1ccccc1)c1cc([N+](=O)[O-])ccc1Cl + C/C(O)=C(\C#N)C(=O)Nc1cc(Br)ccc1Br [LFM-A13] (first compound 10 µM, partner dose 10 µM) | 103
CC(=O)c1c(C)c2cnc(Nc3ccc(N4CCNCC4)cn3)nc2n(C2CCCC2)c1=O [palbociclib] + Cc1cc(SCc2sc(-c3ccc(C(F)(F)F)c(F)c3)nc2C)ccc1OCC(=O)O [GW0742] (first compound 0.2 µM, partner dose 10 µM) | 58.1
CCCCCCCCCCCCCCCCCCOP(=O)([O-])OC1CC[N+](C)(C)CC1 [Perifosine] + O=C(Oc1ccc([N+](=O)[O-])cc1)N1CCC(C(O)(c2ccc3c(c2)OCO3)c2ccc3c(c2)OCO3)CC1 [JZL184] (first compound 2 µM, partner dose 5 µM) | 86.8
O=C(Nc1ccccc1)c1cc([N+](=O)[O-])ccc1Cl + O=C(Oc1ccc([N+](=O)[O-])cc1)N1CCC(C(O)(c2ccc3c(c2)OCO3)c2ccc3c(c2)OCO3)CC1 [JZL184] (first compound 10 µM, partner dose 5 µM) | 72.5
NC1(c2ccc(-c3nc4ccn5c(=O)[nH]nc5c4cc3-c3ccccc3)cc2)CCC1 + O=C(Oc1ccc([N+](=O)[O-])cc1)N1CCC(C(O)(c2ccc3c(c2)OCO3)c2ccc3c(c2)OCO3)CC1 [JZL184] (first compound 2 µM, partner dose 5 µM) | 84.8
C[C@@H](Oc1cc(-c2cnn(C3CCNCC3)c2)cnc1N)c1c(Cl)ccc(F)c1Cl [Crizotinib] + O=C(Oc1ccc([N+](=O)[O-])cc1)N1CCC(C(O)(c2ccc3c(c2)OCO3)c2ccc3c(c2)OCO3)CC1 [JZL184] (first compound 1 µM, partner dose 5 µM) | 80.5
COC(=O)c1sccc1S(=O)(=O)Nc1ccc(Nc2ccccc2)cc1OC + C/C(O)=C(\C#N)C(=O)Nc1cc(Br)ccc1Br [LFM-A13] (first compound 5 µM, partner dose 10 µM) | 117
O=C(O)[C@@H]1[O][Sb](=[O])([O][Sb]2(=[O])[O][C@H]([C@H](O)CO)[C@H](O)[C@H](C(=O)O)[O]2)[O][C@H]([C@H](O)CO)[C@@H]1O (stereo partly specified) [stibogluconate] + C[As](C)SC[C@H](NC(=O)CC[C@H](N)C(=O)O)C(=O)NCC(=O)O [Darinaparsin] (first compound 10 µM, partner dose 2 µM) | 86.9

Compound | cell count [%]
C=CCNC1=C2C[C@@H](C)C[C@H](OC)[C@H](O)[C@@H](C)/C=C(\C)[C@H](OC(N)=O)[C@@H](OC)/C=C\C=C(/C)C(=O)NC(=CC1=O)C2=O [Tanespimycin] + Cc1cc(SCc2sc(-c3ccc(C(F)(F)F)c(F)c3)nc2C)ccc1OCC(=O)O [GW0742] (first compound 0.01 µM, partner dose 10 µM) | 97.9
CN(C)S(=O)(=O)c1ccc2c(c1)/C(=C/c1cc3c([nH]1)CCCC3)C(=O)N2 + O=C(Oc1ccc([N+](=O)[O-])cc1)N1CCC(C(O)(c2ccc3c(c2)OCO3)c2ccc3c(c2)OCO3)CC1 [JZL184] (first compound 2 µM, partner dose 5 µM) | 74.1
Nc1ncn([C@H]2C[C@H](O)[C@@H](CO)O2)c(=O)n1 [decitabine] + O=C(Oc1ccc([N+](=O)[O-])cc1)N1CCC(C(O)(c2ccc3c(c2)OCO3)c2ccc3c(c2)OCO3)CC1 [JZL184] (first compound 0.5 µM, partner dose 5 µM) | 69.1
O=S(=O)(c1ccccc1)N(CC(F)(F)F)c1ccc(C(O)(C(F)(F)F)C(F)(F)F)cc1 + O=C(Oc1ccc([N+](=O)[O-])cc1)N1CCC(C(O)(c2ccc3c(c2)OCO3)c2ccc3c(c2)OCO3)CC1 [JZL184] (first compound 7 µM, partner dose 5 µM) | 88.3
Cn1cnc2c(F)c(Nc3ccc(Br)cc3Cl)c(C(=O)NOCCO)cc21 [selumetinib] + C/C(O)=C(\C#N)C(=O)Nc1cc(Br)ccc1Br [LFM-A13] (first compound 0.075 µM, partner dose 10 µM) | 61.6
CO[C@@H]1[C@H](N(C)C(=O)c2ccccc2)C[C@H]2O[C@]1(C)n1c3ccccc3c3c4c(c5c6ccccc6n2c5c31)C(=O)NC4 [Midostaurin] + C/C(O)=C(\C#N)C(=O)Nc1cc(Br)ccc1Br [LFM-A13] (first compound 0.4 µM, partner dose 10 µM) | 73.6
CN(NC(=O)CC(=O)NN(C)C(=S)c1ccccc1)C(=S)c1ccccc1 + Cc1cc(SCc2sc(-c3ccc(C(F)(F)F)c(F)c3)nc2C)ccc1OCC(=O)O [GW0742] (first compound 0.03 µM, partner dose 10 µM) | 48.8
CC(=O)c1c(C)c2cnc(Nc3ccc(N4CCNCC4)cn3)nc2n(C2CCCC2)c1=O [palbociclib] + C/C(O)=C(\C#N)C(=O)Nc1cc(Br)ccc1Br [LFM-A13] (first compound 0.2 µM, partner dose 10 µM) | 62.7
O=C(Oc1ccc([N+](=O)[O-])cc1)N1CCC(C(O)(c2ccc3c(c2)OCO3)c2ccc3c(c2)OCO3)CC1 + O=c1cc(-c2cccc3c2Sc2ccccc2S3)oc(N2CCOCC2)c1 [KU55933] (first compound 5 µM, partner dose 5 µM) | 66.1
C[C@@H](N)c1ccc(C(=O)Nc2ccnc3[nH]ccc23)cc1 + O=C(Oc1ccc([N+](=O)[O-])cc1)N1CCC(C(O)(c2ccc3c(c2)OCO3)c2ccc3c(c2)OCO3)CC1 [JZL184] (first compound 2 µM, partner dose 5 µM) | 62.9
CS(=O)(=O)CCNCc1ccc(-c2ccc3ncnc(Nc4ccc(OCc5cccc(F)c5)c(Cl)c4)c3c2)o1 [lapatinib] + C[As](C)SC[C@H](NC(=O)CC[C@H](N)C(=O)O)C(=O)NCC(=O)O [Darinaparsin] (first compound 4 µM, partner dose 2 µM) | 79.6
CC(C)(C)c1cnc(CSc2cnc(NC(=O)C3CCNCC3)s2)o1 + O=C(Oc1ccc([N+](=O)[O-])cc1)N1CCC(C(O)(c2ccc3c(c2)OCO3)c2ccc3c(c2)OCO3)CC1 [JZL184] (first compound 0.05 µM, partner dose 5 µM) | 64.8
C[C@@H](Oc1cc(-c2cnn(C3CCNCC3)c2)cnc1N)c1c(Cl)ccc(F)c1Cl [Crizotinib] + C/C(O)=C(\C#N)C(=O)Nc1cc(Br)ccc1Br [LFM-A13] (first compound 1 µM, partner dose 10 µM) | 76.8
CCN(CC)CCNC(=O)c1c(C)[nH]c(/C=C2\C(=O)Nc3ccc(F)cc32)c1C [sunitinib] + C/C(O)=C(\C#N)C(=O)Nc1cc(Br)ccc1Br [LFM-A13] (first compound 2 µM, partner dose 10 µM) | 65.8
Cc1ccc(NC(=O)c2cccc(N(C)C)c2)cc1NC(=O)c1ccc(O)cc1 + C/C(O)=C(\C#N)C(=O)Nc1cc(Br)ccc1Br [LFM-A13] (first compound 10 µM, partner dose 10 µM) | 90.9
